Measured values reported in article PMC4242493.
The list shows a part of the results. The list includes weakly bound sequences.

The sequences below were run against MaxL homodimer (UniProt P61244) (assay: universal protein-binding microarray (PBM)). Conditions: PBS-based mixture, 10 nM His-tagged protein dimer, 2% milk, 200 ng/uL BSA, 50 ng/uL salmon testes DNA, 0.02% TX-100; detection with Alexa 488 anti-His …; high values mean tight binding; most listed sequences are background and not binding sites; double strand, one strand shown.
Chain of UniProt P61244 (P61244 whole entry): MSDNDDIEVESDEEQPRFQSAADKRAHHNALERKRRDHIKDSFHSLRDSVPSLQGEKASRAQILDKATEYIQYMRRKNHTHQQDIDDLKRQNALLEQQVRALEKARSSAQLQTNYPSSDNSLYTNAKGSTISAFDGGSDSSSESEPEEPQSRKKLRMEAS
Work on AATATCTA yielded a binding signal (normalized occupancy) of 0.0771. For CTTAGCTC, the binding signal (normalized occupancy) was 0.0685. Sequence CGATGCAC has a binding signal (normalized occupancy) of 0.0796. In the case of CTATGGCA, the binding signal (normalized occupancy) is reported as 0.0779. AGTATATA gave a binding signal (normalized occupancy) of 0.0822. GACCTACC showed a binding signal (normalized occupancy) of 0.0705. CATCGCGA was tested, and the binding signal (normalized occupancy) was 0.0728. AGAACCAC showed a binding signal (normalized occupancy) of 0.0811. Work on AAACTGAA yielded a binding signal (normalized occupancy) of 0.0754. With ATCTCGCA the binding signal (normalized occupancy) was 0.0744. Work on GCAATCCA yielded a binding signal (normalized occupancy) of 0.0751. Work on CGCTGATA yielded a binding signal (normalized occupancy) of 0.0746. Work on AGGTTCAA yielded a binding signal (normalized occupancy) of 0.0758. CTTAATAC gave a binding signal (normalized occupancy) of 0.0786. ACCATTAG showed a binding signal (normalized occupancy) of 0.0781. ATCTTGGG gave a binding signal (normalized occupancy) of 0.0805. For AAGGGTCT, the binding signal (normalized occupancy) was 0.0758. Work on GGGGGCGA yielded a binding signal (normalized occupancy) of 0.0744. AATAGCTA was tested, and the binding signal (normalized occupancy) was 0.0703. With ACTGCACA the binding signal (normalized occupancy) was 0.0759. For CGTAAACC, the binding signal (normalized occupancy) was 0.0766. In the case of AAGACCAT, the binding signal (normalized occupancy) is reported as 0.0781. GGATGGGA was tested, and the binding signal (normalized occupancy) was 0.0795. ACCCGATC gave a binding signal (normalized occupancy) of 0.0753. With CAGCCGTA the binding signal (normalized occupancy) was 0.0699. ACAGACTA was tested, and the binding signal (normalized occupancy) was 0.0749. CCGACGCG gave a binding signal (normalized occupancy) of 0.0755. With CGGCGAGA the binding signal (normalized occupancy) was 0.0704. Work on CGTTGATA yielded a binding signal (normalized occupancy) of 0.0836. Work on TCACTGCA yielded a binding signal (normalized occupancy) of 0.075. With CTAGAGCC the binding signal (normalized occupancy) was 0.0723. Sequence AGTTATCC has a binding signal (normalized occupancy) of 0.0764. Work on CAAGGTGG yielded a binding signal (normalized occupancy) of 0.0807. For AAGCAGGA, the binding signal (normalized occupancy) was 0.0763. For GCGTTTAA, the binding signal (normalized occupancy) was 0.077. With GAATTACC the binding signal (normalized occupancy) was 0.072. ACACTCAT showed a binding signal (normalized occupancy) of 0.0864. CGGCGCGC showed a binding signal (normalized occupancy) of 0.0738. In the case of AGATGCAA, the binding signal (normalized occupancy) is reported as 0.0764. GAAAGATA was tested, and the binding signal (normalized occupancy) was 0.0832. AGATTTAC showed a binding signal (normalized occupancy) of 0.0746. AATCAGGG gave a binding signal (normalized occupancy) of 0.078. In the case of TGCTGAAA, the binding signal (normalized occupancy) is reported as 0.0767. With GCTGGGGA the binding signal (normalized occupancy) was 0.0757. For AAGGCATG, the binding signal (normalized occupancy) was 0.0988. GCTTACGA was tested, and the binding signal (normalized occupancy) was 0.0728. Work on TCCATTCA yielded a binding signal (normalized occupancy) of 0.0754. GCACAAGC was tested, and the binding signal (normalized occupancy) was 0.0786. For ATCATTTG, the binding signal (normalized occupancy) was 0.078. For GCCTCATA, the binding signal (normalized occupancy) was 0.0768. Sequence GGACACAC has a binding signal (normalized occupancy) of 0.0782. With GTAGAGAA the binding signal (normalized occupancy) was 0.0715. TAATTGAA was tested, and the binding signal (normalized occupancy) was 0.0725. Sequence AATGTAAC has a binding signal (normalized occupancy) of 0.0797. TATATCGA showed a binding signal (normalized occupancy) of 0.077. For CCCCGCTA, the binding signal (normalized occupancy) was 0.0726. Work on CTTCATTA yielded a binding signal (normalized occupancy) of 0.0765. CTACGAAC was tested, and the binding signal (normalized occupancy) was 0.0739. With CTCCGTAA the binding signal (normalized occupancy) was 0.0707. For CAAAGTTA, the binding signal (normalized occupancy) was 0.0749. For CGACTTCA, the binding signal (normalized occupancy) was 0.0712. Sequence CACCTCAA has a binding signal (normalized occupancy) of 0.0776. For ATAGCCAA, the binding signal (normalized occupancy) was 0.0695. With AGTGCTCC the binding signal (normalized occupancy) was 0.0707. With CCTCCGTC the binding signal (normalized occupancy) was 0.0676. In the case of AAAGGGCA, the binding signal (normalized occupancy) is reported as 0.0744. With GCTGTTCC the binding signal (normalized occupancy) was 0.069. Work on AACTCACA yielded a binding signal (normalized occupancy) of 0.0776. CAGACCAC was tested, and the binding signal (normalized occupancy) was 0.0815. ATCATTAG gave a binding signal (normalized occupancy) of 0.0789. Sequence CAGCTTTC has a binding signal (normalized occupancy) of 0.0677. CCCGCCTC gave a binding signal (normalized occupancy) of 0.0782. CCATTTTC showed a binding signal (normalized occupancy) of 0.0787. Work on CCCAAAAA yielded a binding signal (normalized occupancy) of 0.0755. Work on CCGGCGCA yielded a binding signal (normalized occupancy) of 0.0737. In the case of AAGTGTGG, the binding signal (normalized occupancy) is reported as 0.0819. Work on CCCAATAC yielded a binding signal (normalized occupancy) of 0.0788. In the case of AAAGGCTG, the binding signal (normalized occupancy) is reported as 0.0716. Sequence GACGACGA has a binding signal (normalized occupancy) of 0.0747. CCAAACAG was tested, and the binding signal (normalized occupancy) was 0.074. AGAGCTAG was tested, and the binding signal (normalized occupancy) was 0.0738. Sequence CATGAACC has a binding signal (normalized occupancy) of 0.0813. For CCATTCGG, the binding signal (normalized occupancy) was 0.0809. Work on AGCACGCG yielded a binding signal (normalized occupancy) of 0.156. With ACCTACTA the binding signal (normalized occupancy) was 0.0743. For CATCGAAA, the binding signal (normalized occupancy) was 0.0708. With ACTACCAG the binding signal (normalized occupancy) was 0.0758. Sequence GGTTCACA has a binding signal (normalized occupancy) of 0.0775. ATGCTGCC gave a binding signal (normalized occupancy) of 0.0877. AAACAACC showed a binding signal (normalized occupancy) of 0.0764. Sequence GGGTTCCA has a binding signal (normalized occupancy) of 0.0735. CATCCTTC gave a binding signal (normalized occupancy) of 0.0759. With GAGCGTGA the binding signal (normalized occupancy) was 0.0923. For AATCAATT, the binding signal (normalized occupancy) was 0.0777. With AGGTGTGC the binding signal (normalized occupancy) was 0.0866. For GGAGCTAA, the binding signal (normalized occupancy) was 0.0724. With GTGTGAGA the binding signal (normalized occupancy) was 0.0806. ACCGTCTC was tested, and the binding signal (normalized occupancy) was 0.0705. With GATAGCAA the binding signal (normalized occupancy) was 0.0805. For GGATCTGA, the binding signal (normalized occupancy) was 0.0762. GCTGACGA gave a binding signal (normalized occupancy) of 0.072. For CTACCTGA, the binding signal (normalized occupancy) was 0.0756. ATGCCTCA showed a binding signal (normalized occupancy) of 0.0931. GGTGCCCA showed a binding signal (normalized occupancy) of 0.0744. GAACCGTC gave a binding signal (normalized occupancy) of 0.0675. CCCGCGTA showed a binding signal (normalized occupancy) of 0.073. GCACCCCC showed a binding signal (normalized occupancy) of 0.0761. GGAACTAA was tested, and the binding signal (normalized occupancy) was 0.0752. Work on ACCTTCTG yielded a binding signal (normalized occupancy) of 0.0705.
